Test results published in the supplement of paper PMC11417369.
This is one part of the list.

Tested on: PfAP2-HC AP2 domain (GST-tagged)
Test: gcPBM binding intensity (ln(normalized median fluorescence intensity)); higher = stronger DNA binding
Summary of the method: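 In this array assay, P. falciparum DNA-binding domains with a GST tag, expressed in E. coli, were applied for 1 h to primer-extended double-stranded 36-bp intergenic genomic probes and negative controls on an Agilent 4 × 180k array. Bound protein was visualised with Alexa488 anti-GST antibody at 488 nm. Binding intensity is the highest Masliner-normalised natural-log median intensity across replicate spots of either probe orientation.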

Compared with “ATAATTATACAAAAGCGTACACGATATAAATCTACG [XGTACX_site8115]”, “CTTAAATCCATAATATGTACTTAAAAAGAAAAAATA [XGTACX_site4765]” is lower in “gcPBM binding intensity (ln)” value: 9.76 for the first, 9.16 for the second.

Going from “AGACAATTTTTTAGTACACACATATAGATATATAAA [CACACA_site6832]” to “ATATATGTGTATGTATGTACTCATTTTTGTATATAT [XGTACX_site490]”, the “gcPBM binding intensity (ln)” value rises from 9.69 to 9.72.

First: AAACAAAGAAAGAACACACATACACAATATACCTAC [CACACA_site2835]
Second: TTATATATTTATATTTGTACGTATAAATTTTTTTTT [XGTACX_site2833]
The “gcPBM binding intensity (ln)” value of the first is higher: 10.5 for the first, 9.7 for the second.

Compared with “TATTTTGAAAAAGTTGCACACAAAATTTAAAAAAAA [CACACA_site8470]”, “CATTTAAATTATAAGTGTACACGATCATATTTCATC [XGTACX_site349]” is lower in “gcPBM binding intensity (ln)” value: 9.69 for the first, 9.61 for the second.

Compared with “ATAATGATATATTATAAACACACAAAGATGAATATA [CACACA_site8914]”, “TACATTCATGTGTATTGTACAAACTATTTTATAATA [XGTACX_site7744]” is lower in “gcPBM binding intensity (ln)” value: 9.9 for the first, 9.56 for the second.

First: TATATAATATATATAGTGCATAAGTTCAAAAGAATA [GTGCAC_site9805]
Second: GCATATTTTATAATTTTACACACCATATAAAATAAT [CACACA_site8904]
The “gcPBM binding intensity (ln)” value of the first is higher: 9.82 for the first, 9.67 for the second.

Going from “TACATATTTTTTATGTGTACATATTTTTTATGTGTA [XGTACX_site443]” to “ACAATCCTAACGACATGTACAAATATATATATTTTT [XGTACX_site7335]”, the “gcPBM binding intensity (ln)” value rises from 9.65 to 9.74.

Going from “CCAACATTTTTTAGAAGTACATTTTTATATTTATTA [XGTACX_site5179]” to “TATATATATATATATGTACACACATATATACCTTTC [CACACA_site8854]”, the “gcPBM binding intensity (ln)” value rises from 9.51 to 10.4.

Going from “AAATAAAAACATAACAGTACAGTTAACATTTTTATA [XGTACX_site3479]” to “AGGTACTTTTTTAAAACACACATATAATATATACAC [CACACA_site1065]”, the “gcPBM binding intensity (ln)” value rises from 9.64 to 9.75.

Going from “GATGGAAGGTGAAAGCGTACTTATTATAGTAATATA [XGTACX_site303]” to “TGTAATAATCTTACATGTACATACATATATTATATA [XGTACX_site4012]”, the “gcPBM binding intensity (ln)” value rises from 9.61 to 9.72.

Compared with “TTTTTTTTTTTTTCAAGTACATAACTTACCCCTTTT [XGTACX_site6207]”, “TTATATGCATAAAAACGTACAAAAATGTATTCATGT [XGTACX_site2215]” is higher in “gcPBM binding intensity (ln)” value: 9.22 for the first, 9.73 for the second.

First: AGGATATGCAGACACACACACATATATATATATATA [CACACA_site2201]
Second: TTTTTTAATAATAGGAAAATGAATATTATATCGAAT [TGCATGCA_negctrl_site543]
The “gcPBM binding intensity (ln)” value of the first is higher: 10.5 for the first, 9.38 for the second.

First: GTTATAGAAGCATTCACACACACACCCACATACACA [CACACA_site1465]
Second: AAACGATTACTGTGTACACACATAGTTATAAACATA [CACACA_site5195]
The “gcPBM binding intensity (ln)” value of the first is higher: 11.2 for the first, 10.1 for the second.

First: GAATGTTAACGTTGCACACAAAAAAAAAGTATACAT [CACACA_site2415]
Second: TTACATAATATATGTACACACGCAAATACTTAGAAT [CACACA_site320]
The “gcPBM binding intensity (ln)” value of the first is higher: 9.94 for the first, 9.83 for the second.

Compared with “CATTTGATAAGATACACACACAAGGAAAAAAATAAA [CACACA_site350]”, “TTATAATATCTATATATCTTTTACATTTATAAGTTT [CACACA_negctrl_site1473]” is lower in “gcPBM binding intensity (ln)” value: 10.7 for the first, 9.62 for the second.

Going from “TATAATAATATTAACACACGTACAAAAGCAAACAAC [CACACA_site3494]” to “ATATATATATTCCACACACACACAAAAAAAAAAAAA [CACACA_site3648]”, the “gcPBM binding intensity (ln)” value rises from 10.2 to 10.6.

Going from “TTTTTTTTTTTTTTTGCACACAGGGTGTAGGACAAG [CACACA_site2842]” to “TATGGTGTAATTTAGTGTATTATATTATTTTGGTTG [GTGCAC_negctrl_site445]”, the “gcPBM binding intensity (ln)” value rises from 9.65 to 10.

First: GTCTATTCAAAAAAGTGTACGGACATATAAACATAC [XGTACX_site6516]
Second: TTAGCTATGATATATACACACCAACGAACGAAGAAA [CACACA_site6657]
The “gcPBM binding intensity (ln)” value of the first is higher: 9.92 for the first, 9.79 for the second.

First: TGCAGTCTGGAGAAAAGTACATAGTATCTGGTATCT [XGTACX_site2545]
Second: AGATATAGGAAAATAATATATATATATTTTTTTTTT [CACACA_negctrl_site461]
The “gcPBM binding intensity (ln)” value of the first is lower: 9.53 for the first, 9.57 for the second.

First: ATATATATATATATATGTACTTATAAGGTATATTTA [XGTACX_site3327]
Second: ATTTATTTATTTATTTGTACATATAAATATATCAAA [XGTACX_site7383]
The “gcPBM binding intensity (ln)” value of the first is higher: 9.7 for the first, 9.32 for the second.

First: TATATTTATTTATACACATGCATATTTTAAGGGCTC [TGCATGCA_site885]
Second: CATATAATTATATATCGTACATATTAATATAATTAC [XGTACX_site401]
The “gcPBM binding intensity (ln)” value of the first is lower: 9.55 for the first, 9.58 for the second.

First: AAAGATGTTATATATATGTATATATATATGTAATAT [TGCATGCA_negctrl_site386]
Second: AGTATACAGATATATACACACATATATTTATTTATA [CACACA_site6279]
The “gcPBM binding intensity (ln)” value of the first is lower: 9.67 for the first, 9.89 for the second.
